# Source: the supplement of paper PMC10441789
# The list shows a part of the results. Antibody binding of pooled human sera (four to six donors per pool; dilution not stated) to peptides of the Trypanosoma cruzi antigen TSSA on microarrays. Quantile-normalised fluorescence in arbitrary units, mean of duplicate arrays; higher = more binding. No active / inactive call. The uninfected pools are read here as the healthy donors of the same country. The strongest signals lie near the top of the scale (about 60,000).
# How the values were obtained:
# Experiment in all cases: antibody binding signal (normalised fluorescence) (arbitrary fluorescence units); higher = stronger serum antibody binding to peptide
# [1] = system: pooled sera of chronic Chagas disease patients, Argentina
# Protocol: (§1)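 Microarray of 15-residue peptides over residues 30-55 of Trypanosoma cruzi TSSAII, each with 1 to 10 substitutions at naturally variable positions, probed with one serum pool per country.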
# [2] = system: pooled sera of chronic Chagas disease patients, Bolivia
# Protocol: as §1
# [3] = system: pooled sera of chronic Chagas disease patients, Brazil
# Protocol: as §1
# [4] = system: pooled sera of chronic Chagas disease patients, Colombia
# Protocol: as §1
# [5] = system: pooled sera of chronic Chagas disease patients, Mexico
# Protocol: as §1
# [6] = system: pooled sera of chronic Chagas disease patients, USA
# Protocol: as §1
# [7] = system: pooled sera of uninfected people, Argentina
# Protocol: as §1
# [8] = system: pooled sera of uninfected people, Bolivia
# Protocol: as §1
# [9] = system: pooled sera of uninfected people, Brazil
# Protocol: as §1
# [10] = system: pooled sera of uninfected people, Colombia
# Protocol: as §1
# [11] = system: pooled sera of uninfected people, Mexico
# Protocol: as §1
# [12] = system: pooled sera of uninfected people, USA
# Protocol: as §1
Sequence,antibody binding signal [1],antibody binding signal [2],antibody binding signal [3],antibody binding signal [4],antibody binding signal [5],antibody binding signal [6],antibody binding signal [7],antibody binding signal [8],antibody binding signal [9],antibody binding signal [10],antibody binding signal [11],antibody binding signal [12]
KEKKAAAGEAPSPPG,178,187,425,164,131,6760,113,69.2,101,96.3,73.8,82.9
NKPATGGAPSPPGAS,637,2580,6990,319,332,1980,847,1990,284,918,253,1810
NKTAAGGAPSQPGAS,259,656,7510,5190,798,453,772,1050,461,370,301,946
NKPATGEAPSQSGAS,26000,47900,47500,220,184,40400,1050,1270,536,302,424,957
GKDKKTAAGGTPSQP,377,257,201,3730,434,1580,229,132,288,181,383,112
GKENKPAAGGTPSPS,1610,512,2880,3740,2980,6450,783,222,447,218,183,118
PPSGKDKKAAAGEAP,1060,640,883,1060,38600,5080,208,430,104,350,74.4,106
TEKKTATGEAPSQPG,16100,33900,38500,406,1050,21900,176,181,372,136,284,181
EKKAAAGEAPSQSGA,3480,4950,9570,434,416,10200,138,1300,119,93.7,180,1020
ISTPPSGKDNKAATG,4800,746,2630,388,16400,2400,270,489,120,148,98.8,158
KPATGGAPSQSGASS,790,1060,791,161,681,484,300,987,153,139,284,205
KENKPAAGGAPSQPG,193,269,15000,703,452,2090,227,180,128,104,133,181
KDNKAAAGGAPSQPG,272,310,5200,1320,161,240,394,2210,130,160,80.1,121
KEKKPAAGGAPSPPG,175,215,269,1410,178,465,113,86.1,124,86.5,65.3,326
TENKAATGETPSPSG,32300,4320,17000,290,145,13800,168,205,155,130,350,3170
TENKAATGEAPSPPG,31400,41100,38500,249,207,25400,170,134,166,116,97.6,135
TPPSGTENKAAAGEA,45400,39600,44200,226,2840,17900,2200,366,273,403,229,256
NKTAAGGTPSQPGAS,1330,289,2880,6820,636,1670,812,1050,1250,504,2030,1330
GKENKAAAGGTPSPS,1040,294,3020,4660,2150,8080,278,76.4,455,178,113,98.2
SGTDKKPAAGGTPSP,748,2820,26900,16200,2430,1680,204,333,2440,476,2330,478
PPSGTENKPATGETP,53100,44000,48800,399,8980,32000,6990,1250,714,419,2200,844
KENKTAAGETPSQPG,504,707,30100,852,351,2910,171,394,168,220,154,189
KEKKAATGEAPSPSG,12000,6750,15100,138,178,16300,353,75,110,174,85.2,103
